Reference: the antibiotic and cytotoxicity screens of Wong et al. (2023)
The list shows a part of the results.

Legend:
[1] = tested on: HSkMC (human skeletal muscle cells); assay: cytotoxicity call (relative viability < 0.9); conditions: 10 µM
[2] = tested on: HepG2; assay: cytotoxicity call (relative viability < 0.9); conditions: 10 µM
[3] = tested on: S. aureus RN4220; assay: growth inhibition call (relative growth <= 0.2); conditions: 50 µM

Cc1noc(C)c1NC(=O)N(C)C[C@@H]1OCCCC[C@H](C)Oc2ccc(NS(=O)(=O)c3ccccc3)cc2C(=O)N([C@@H](C)CO)C[C@@H]1C
cytotoxicity call [1]: inactive | cytotoxicity call [2]: inactive | growth inhibition call [3]: inactive

C[C@@H]1CN([C@H](C)CO)C(=O)c2cc(C#CC3(O)CCCC3)cnc2O[C@@H]1CN(C)C(=O)Cc1ccncc1
cytotoxicity call [1]: inactive | cytotoxicity call [2]: inactive | growth inhibition call [3]: inactive

COc1ccccc1NC(=O)N(C)C[C@@H]1Oc2cc(Br)ccc2S(=O)(=O)N([C@@H](C)CO)C[C@H]1C
cytotoxicity call [1]: inactive | cytotoxicity call [2]: inactive | growth inhibition call [3]: inactive

COC[C@@H]1CNN1C(=O)c1cc(C)oc1C
cytotoxicity call [1]: inactive | cytotoxicity call [2]: inactive | growth inhibition call [3]: inactive

C[C@H]1CN([C@@H](C)CO)C(=O)CCCn2nncc2CO[C@@H]1CN(C)C(=O)c1ccc(N2CCN(C)CC2)cc1
cytotoxicity call [1]: inactive | cytotoxicity call [2]: inactive | growth inhibition call [3]: inactive

C1CNCCN1.CC12CCC3c4ccc(OS(=O)(=O)O)cc4CCC3C1CCC2=O (centres undefined)
cytotoxicity call [1]: inactive | cytotoxicity call [2]: inactive | growth inhibition call [3]: inactive

COc1cccc(C(=O)Nc2ccc3c(c2)C(=O)N(C)[C@@H]2CC[C@@H](CC(=O)NCCCN4CCOCC4)O[C@@H]2CO3)c1
cytotoxicity call [1]: inactive | cytotoxicity call [2]: inactive | growth inhibition call [3]: inactive

CO[C@H](CN(C)S(=O)(=O)c1cn(C)cn1)[C@@H](C)CN(C(=O)Nc1ccc(C(F)(F)F)cc1)[C@@H](C)CO
cytotoxicity call [1]: inactive | cytotoxicity call [2]: inactive | growth inhibition call [3]: active

CO[C@@H]1CN(C)C(=O)c2cc(NC(=O)Nc3ccccc3F)ccc2OC[C@H](C)N(CCC(F)(F)F)C[C@H]1C
cytotoxicity call [1]: inactive | cytotoxicity call [2]: inactive | growth inhibition call [3]: inactive

Cc1ccc(S(=O)(=O)Nc2ccc3c(c2)C(=O)N([C@@H](C)CO)C[C@@H](C)[C@@H](CN(C)C(=O)NC2CCCCC2)OCCCC[C@@H](C)O3)cc1
cytotoxicity call [1]: inactive | cytotoxicity call [2]: inactive | growth inhibition call [3]: inactive

[O-][n+]1cccc(CO)c1
cytotoxicity call [1]: inactive | cytotoxicity call [2]: inactive | growth inhibition call [3]: inactive

C[C@H](CO)N1C[C@H](C)[C@@H](CN(C)S(=O)(=O)c2ccccc2F)Oc2cc(C#Cc3ccccc3)ccc2S1(=O)=O
cytotoxicity call [1]: inactive | cytotoxicity call [2]: inactive | growth inhibition call [3]: inactive

C[C@@H]1CCCCO[C@H](CN(C)CC2CCCCC2)[C@H](C)CN([C@H](C)CO)C(=O)c2cc(NC(=O)CCC(F)(F)F)ccc2O1
cytotoxicity call [1]: inactive | cytotoxicity call [2]: inactive | growth inhibition call [3]: inactive

COc1ccc(S(=O)(=O)N(C)C[C@@H]2Oc3c(NC(=O)Nc4cccc5ccccc45)cccc3C(=O)N([C@H](C)CO)C[C@H]2C)cc1
cytotoxicity call [1]: inactive | cytotoxicity call [2]: active | growth inhibition call [3]: inactive

CC(C)(C)[S@](=O)N1Cc2cc(C(=O)NC3CCCCC3)nc(-c3cccc(Br)c3)c2[C@@H]1CCO
cytotoxicity call [1]: inactive | cytotoxicity call [2]: inactive | growth inhibition call [3]: inactive

C[C@@H]1CN([C@H](C)CO)C(=O)c2cc(/C=C/c3ccccc3)cnc2O[C@H]1CN(C)C(=O)C1CCOCC1
cytotoxicity call [1]: inactive | cytotoxicity call [2]: inactive | growth inhibition call [3]: inactive

COC[C@H]1CN(C(=O)c2cscn2)N1C
cytotoxicity call [1]: inactive | cytotoxicity call [2]: inactive | growth inhibition call [3]: inactive

C[C@@H]1CN([C@@H](C)CO)C(=O)c2cc(NC(=O)Nc3ccc(C(F)(F)F)cc3)ccc2O[C@@H](C)CCCCO[C@@H]1CN(C)C(=O)C1CCCCC1
cytotoxicity call [1]: inactive | cytotoxicity call [2]: inactive | growth inhibition call [3]: inactive

C[C@@H]1CN([C@H](C)CO)C(=O)c2cccc(NC(=O)c3cnccn3)c2O[C@H]1CN(C)Cc1ccc(C(=O)O)cc1
cytotoxicity call [1]: inactive | cytotoxicity call [2]: inactive | growth inhibition call [3]: inactive

C[C@@H]1CN([C@@H](C)CO)C(=O)c2cc(NC(=O)C3CCCCC3)ccc2O[C@@H](C)CCCCO[C@H]1CN(C)Cc1ccc(C(F)(F)F)cc1
cytotoxicity call [1]: inactive | cytotoxicity call [2]: active | growth inhibition call [3]: inactive

Cc1noc(C)c1S(=O)(=O)Nc1ccc2c(c1)CC(=O)N([C@@H](C)CO)C[C@H](C)[C@@H](CN(C)S(=O)(=O)c1cccs1)O2
cytotoxicity call [1]: inactive | cytotoxicity call [2]: inactive | growth inhibition call [3]: inactive

CN(C)CCCNC(=O)C[C@H]1CC[C@H]2[C@@H](COC[C@@H](O)CN2S(=O)(=O)c2ccc(F)cc2)O1
cytotoxicity call [1]: inactive | cytotoxicity call [2]: inactive | growth inhibition call [3]: inactive

C[C@H]1CCCCO[C@H](CN(C)C(=O)CCCN(C)C)[C@@H](C)CN([C@@H](C)CO)C(=O)c2cc(NC(=O)Nc3ccc(F)cc3)ccc2O1
cytotoxicity call [1]: inactive | cytotoxicity call [2]: inactive | growth inhibition call [3]: inactive

C[C@@H]1CN([C@@H](C)CO[Si](C)(C)C(C)(C)C)C(=O)c2cc(NC(=O)Nc3ccccc3)ccc2O[C@@H](C)CCCCO[C@H]1CN(C)S(=O)(=O)c1ccc(F)cc1
cytotoxicity call [1]: inactive | cytotoxicity call [2]: active | growth inhibition call [3]: inactive

CC(C)C[C@@H]1NC(=O)[C@@]23C(=O)N[C@@H](Cc4ccccc4)[C@H]2[C@H](C)[C@@]2(C)O[C@H]2[C@@H]3/C=C/C/C=C\CNC(=O)[C@@H](C)NC1=O
cytotoxicity call [1]: inactive | cytotoxicity call [2]: inactive | growth inhibition call [3]: inactive

O=C(NCCCc1nn[nH]n1)c1[nH]nc2c1CCC2
cytotoxicity call [1]: inactive | cytotoxicity call [2]: inactive | growth inhibition call [3]: inactive

CS(=O)(=O)N1CCO[C@]2(COCCN(c3cncnc3)C2)C1
cytotoxicity call [1]: inactive | cytotoxicity call [2]: inactive | growth inhibition call [3]: inactive

CCC1OC(=O)C(C)C(=O)C(C)C(OC2OC(C)CC(N(C)C)C2O)C(C)(OC)CC(C)C(=O)C(C)C2N(CCCCn3cnc(-c4cccnc4)c3)C(=O)OC12C (centres undefined)
cytotoxicity call [1]: inactive | cytotoxicity call [2]: inactive | growth inhibition call [3]: active
